# Measurements taken from PubChem BioAssay AID1159614 (National Center for Advancing Translational Sciences (NCATS), 2016).
# In all, about 45,000 compounds went through this assay and about 65 (0.1%) were called active. The call rests on the fitted dose curve; in most records, active means well fitted activation curve with a large enough effect; inconclusive means small, poorly fitted or top-dose-only effect; inactive means no such curve, though single readings can be large or run the other way. Some of the results follow.
# Biological target: Galactocerebrosidase (Homo sapiens) (UniProt P54803)
# Test: A Novel Cell-Based Assay to Identify Small Molecules for B -Galactocerebrosidase; further: 0% is about no effect; nearly all actives have a fitted effect of over 65% in size
# Details: 145M-Twi-hGALC-G270D cells (Twitcher mouse brain line with human GALC G270D), HMU-beta-Gal fluorescence, 48 h; series mostly up to 57.5 µM; activation: at the top concentration
# Outline: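 Mutant human GALC (G270D), stably expressed in a Twitcher mouse brain cell line lacking endogenous GALC, is measured in live-treated cells via 6-hexadecanoylamino-4-methylumbelliferyl-β-galactoside hydrolysis (0.1 mM final, pH 5.2) with fluorescent detection.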
# Sequence of UniProt P54803 (P54803 whole entry, looked up): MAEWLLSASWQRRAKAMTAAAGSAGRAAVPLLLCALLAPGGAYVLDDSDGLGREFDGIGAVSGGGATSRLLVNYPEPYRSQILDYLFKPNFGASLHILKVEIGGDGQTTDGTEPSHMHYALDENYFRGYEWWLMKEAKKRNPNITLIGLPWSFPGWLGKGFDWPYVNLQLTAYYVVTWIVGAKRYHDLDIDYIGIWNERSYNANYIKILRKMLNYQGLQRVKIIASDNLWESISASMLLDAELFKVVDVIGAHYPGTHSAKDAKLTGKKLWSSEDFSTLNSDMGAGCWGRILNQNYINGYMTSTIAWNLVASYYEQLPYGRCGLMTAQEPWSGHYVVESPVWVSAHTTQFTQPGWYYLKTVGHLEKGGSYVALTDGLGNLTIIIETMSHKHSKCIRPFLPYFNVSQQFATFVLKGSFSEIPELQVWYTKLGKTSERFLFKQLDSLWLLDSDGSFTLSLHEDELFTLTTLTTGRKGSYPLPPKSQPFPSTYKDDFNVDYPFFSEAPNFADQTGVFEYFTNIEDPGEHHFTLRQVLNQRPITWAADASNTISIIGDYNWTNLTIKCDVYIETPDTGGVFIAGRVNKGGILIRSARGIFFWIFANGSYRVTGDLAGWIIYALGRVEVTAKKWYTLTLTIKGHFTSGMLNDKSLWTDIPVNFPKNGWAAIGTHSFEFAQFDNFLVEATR
row,Compound,activation
1,COCCn1c(C)cc(O)c(C(c2ccccc2)N2CCN(CCO)CC2)c1=O (stereo unspecified),inactive: -1.92%
2,NNc1nnc(NN)c2ccccc12,inactive: -12.2%
3,COc1cc2c(cc1OC)C(COc1ccc3c(C)cc(=O)oc3c1)N(C(=O)c1cccc(OC)c1OC)CC2 (stereo unspecified),inactive: 17%
4,Cc1ccc2c(n1)sc1c(=O)n(-c3cccc(C(F)(F)F)c3)nnc12,inactive: 2.72%
5,Clc1ccc(OCc2nc(-c3ccc(-n4cccc4)cc3)no2)cc1,inactive: -18.2%
6,Cc1ccc(Cl)cc1NC(=O)CCCn1c(=O)c2cccn2c2ccccc21,inactive: -6.43%
7,COc1ccc2c(c1)c1c(c(=O)n(Cc3ccccc3)c(=O)n1CC(=O)Nc1cc(C)cc(C)c1)n2C,inactive: 2.72%
8,CCOc1ccc(NC(=O)N2CCC(CN3CCCCCC3)CC2)cc1,inactive: -14.7%
9,Cc1cccc(N2CCN(C(=O)c3ccc4c(c3)c(C)c(C)n4C)CC2)c1C,inactive: -8.66%
10,Cc1cc(C)cc(NC(=O)CSc2oc(-c3ccco3)nc2S(=O)(=O)c2ccccc2)c1,inactive: -9.66%
11,O=C(Nc1ccccc1OCc1cc(=O)n2ccccc2n1)c1cccc(Br)c1,inactive: -10.6%
12,CN(C(=O)CSc1nnc(-c2ccc([N+](=O)[O-])cc2)o1)C1CCCCC1,inactive: -14%
13,Cc1ccc(CN2CCSc3ccc(C(=O)Nc4cc(C)cc(C)c4)cc32)cc1,inactive: -16.1%
14,Cc1ccc(CCNC(=O)CCCn2c(=O)c3ccccc3n(CC(=O)Nc3cc(Cl)ccc3C)c2=O)cc1,inactive: -13%
15,CC(=O)N1CCc2c(sc3nc(SCC(N)=O)n(-c4ccc(F)c(Cl)c4)c(=O)c23)C1,inactive: -11.2%
16,COc1ccc(-c2nc3scc(CCNS(=O)(=O)c4cc(F)ccc4OC)n3n2)cc1OC,inactive: -17.6%
17,COc1ccc(CCNC(=O)Cn2c(=O)cc(C(F)(F)F)c3c(C)nn(C)c32)cc1OC,inactive: -0.768%
18,Clc1ccc(Nc2c(-c3cccs3)nc3ccc(Cl)cn23)cc1,inactive: 16.1%
19,COc1ccccc1NC(=O)C1=C(C)Nc2nc(SCc3ccccc3F)nn2C1c1cccnc1 (stereo unspecified),inactive: -13.3%
20,O=C(O)c1ccccc1O,inactive: -10.1%
21,Cc1ccc(Cl)cc1NC(=O)c1sc2nc(-c3ccccc3)cn2c1C,inactive: -7.84%

row,Compound,activation
1,CCc1cccc(NC(=O)c2cc3c(=O)[nH]c4ccccc4c3n2C)c1,inactive: -7.53%
2,COc1ccc(CN(C)S(=O)(=O)c2nnc(NC(=O)C(C)C)s2)cc1OC,inactive: -16.4%
3,CC(=O)c1cccc(NC(=O)CSc2nnc3ccc(-c4ccc(Cl)cc4)nn23)c1,inactive: -14.1%
4,CCOC(=O)c1sc2nc(C)n(CC(=O)Nc3cccc(Cl)c3)c(=O)c2c1C,inactive: -0.0229%
5,Cc1ccc(C)c(CSC2=NC(C)(C)Nc3ccccc32)c1,inactive: -7.78%
6,CC(C)CN(CC(C)C)c1nc(-c2ccc(Cl)cc2)nc2ccccc12,inactive: -11%
7,C=CCc1c(C)nc2nc(SCC(=O)Nc3cccc(Cl)c3)nn2c1C,inactive: -9.09%
8,COc1ccc(Cl)cc1NC(=O)Cn1c(=O)n(Cc2nc(C)no2)c(=O)c2ccccc21,inactive: 0.111%
9,CCc1ccc(NC(=O)c2ccc3c(=O)n4nc(Nc5ccccc5C)sc4nc3c2)cc1,inactive: -13.1%
10,O=C(NCCCN1CCN(c2ccc(F)cc2)CC1)C1COc2ccccc2C1 (stereo unspecified),inactive: -6.89%
11,O=C(CCS(=O)(=O)c1ccccc1)N(Cc1cccnc1)c1nc2c(Cl)cccc2s1,inactive: -22.6%
12,O=C(Nc1ccccc1C(=O)OCc1cc(=O)n2c3c(sc2n1)CCCC3)c1ccccc1,inactive: -20.3%
13,CO/N=C(/C(=O)N[C@@H]1C(=O)N2C(C(=O)O)=C(Cn3nnc(C)n3)CS[C@H]12)c1csc(N)n1,inactive: -2.85%
14,CCOC(=O)c1c(C)oc2nc(C)nc(N(CC(C)C)CC(C)C)c12,inactive: -24.1%
15,Cc1c(Cl)cccc1NC(=O)c1ccc2c(c1)nnn2C1CCCC1,inactive: 6.77%
16,COc1ccc(C(=O)Nc2ccc(NC(=O)c3cccs3)cc2)cc1OC,inactive: -10.4%
17,COc1ccccc1CCNC(=O)C(=O)NCC(c1ccco1)S(=O)(=O)c1cccs1 (stereo unspecified),inactive: -12.2%
18,Cc1cccc(C(=O)NCC(c2cccs2)S(=O)(=O)c2cccs2)c1 (stereo unspecified),inactive: -12%
19,CN(C)c1ccc(CN(Cc2ccco2)C(=O)COc2ccc(F)cc2)cc1,inactive: -16.2%
20,Cc1ccc(NC(=O)N2CC3CCCN3c3ccccc32)cc1C (stereo unspecified),inactive: 0.322%
21,CCOc1ccc(C(=O)c2cn(CC(=O)Nc3ccc(OC)cc3)c3cc4c(cc3c2=O)OCO4)cc1,inactive: -24.3%

row,Compound,activation
1,O=C(NCC(c1ccc2c(c1)OCO2)N1CCN(c2ccccc2)CC1)C(=O)Nc1ccc(F)cc1 (stereo unspecified),inactive: -26.4%
2,CC1CCN(S(=O)(=O)c2ccc3c(c2)CCN3C(=O)Nc2cccc(Br)c2)CC1,inactive: -10.8%
3,Cc1ccc(-c2nc3n(n2)C(c2ccccc2Cl)C=C(c2ccc(Cl)cc2)N3)cc1 (stereo unspecified),inactive: -7.57%
4,Cc1ccc(S(=O)(=O)NC2(C(F)(F)F)NC(=O)N(c3ccc(F)cc3)C2=O)cc1 (stereo unspecified),inactive: 4.32%
5,CCOCCc1nn2c(=O)cc(COC(=O)c3ccccc3NC(=O)c3ccccc3F)nc2s1,inactive: -8.8%
6,CCOC(=O)c1ccc(CN(Cc2ccc(C)cc2)S(=O)(=O)c2ccc(F)c(C(=O)Nc3ccc(C)c(F)c3)c2)cc1,inactive: -4.06%
7,N#Cc1c[nH]n2c(NC3CCCC3)c(-c3cccc(Br)c3)nc12,inactive: -14.9%
8,COC(=O)c1sccc1S(=O)(=O)N(CC(=O)NCc1ccc(C)cc1)c1ccccc1,inactive: -2.03%
9,CCOC(=O)c1c(C)[nH]c(C)c1S(=O)(=O)N1CCCC(C(=O)Nc2ncccc2C)C1 (stereo unspecified),inactive: -11.4%
10,Cc1oc(-c2ccc(C(=O)NCCC(C)C)cc2)nc1CS(=O)(=O)c1ccccc1,inactive: -10.2%
11,CCS(=O)(=O)N1CC(=O)N(c2cccc(Cl)c2)C(C)(C(=O)NC2CCCCCC2)C1 (stereo unspecified),inactive: -0.943%
12,CC(C)CCn1c(=O)c2cccnc2n(CC(=O)Nc2ccccc2)c1=O,inactive: 3.43%
13,CCCC(=O)N1CCc2cc(OC)c(OC)cc2C1COc1ccccc1OC (stereo unspecified),inactive: -23.4%
14,CCc1ccc(CNc2ncc(-c3cccc(OC)c3)n2C)cc1,inactive: -41.3%
15,CCOCCCn1c(=N)c(C(=O)NC(C)c2ccccc2)cc2c(=O)n3cc(C)ccc3nc21 (stereo unspecified),inactive: -7.52%
16,Cc1ccn2c(NC(=O)c3cccc(Cl)c3)c(-c3ccccc3)nc2c1,inactive: 3.77%
17,CCc1cccc(CC)c1NC(=O)CN(CC(=O)O)CC(=O)O,inactive: -7.49%
18,CCOC(=O)Cc1cc(C(=O)Nc2ccc(Br)cc2)sc1-c1ccc(C)cc1,inactive: -14.8%
19,Cc1cccc(C)c1NC(=O)Cn1c(=O)n(Cc2ccc(C(=O)NCc3ccco3)cc2)c(=O)c2sccc21,inactive: 4.8%
